# Data from PubChem BioAssay AID504466 (National Center for Advancing Translational Sciences (NCATS), 2011).
# Among all 330,000 compounds or so, about 4,200 (1.3%) were called active. Inconclusive means that the source gave no clear call. Such entries were picked first, then a sample of the others. The call rests on the fitted dose curve; in most records, active means well fitted activation curve with a large enough effect; inconclusive means small, poorly fitted or top-dose-only effect; inactive means no such curve, though single readings can be large or run the other way. A potency beside an inconclusive call is a rough fit, not a confirmed value.
# Test: qHTS screen for small molecules that induce genotoxicity in human embryonic kidney (HEK293T) cells expressing luciferase-tagged ELG1; further: nearly all actives have a fitted effect of over 60% in size
# Conditions: HEK293T ELG1-luciferase reporter, luminescence, 16 h; series mostly up to 46 µM
# How it was run: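 Quantitative HTS format in 1536-well plates. HEK293T ELG1-luciferase reporter cells receive test compound and are incubated 16 hr at 37 °C, 5% CO2; ONE-Glo added, 30 min room temperature, then luminescence read.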
# Potency means the concentration at half of the fitted maximal effect; tags describe the fitted curve by direction and shape.
row,Structure (SMILES),Potency
1,CCN(CC)c1ccc2nc3ccccc3[n+](CC)c2c1,inactive
2,CC(C)OC(=O)c1ccc(NC(=O)c2ccco2)cc1,active: 2.82 µM
3,Cc1nn(-c2ccccc2)c(Cl)c1/C=N/NC(=O)c1cccc(S(=O)(=O)N2CCCC2)c1,inactive
4,Cc1ccc(NC(=O)c2ccc3nsnc3c2)c(C)c1,"inconclusive: 20.6 µM [activator, partial curve, poor fit]"
5,CC1CCCCN1C(=O)C1CC(c2ccc(F)cc2)=NO1 (stereo unspecified),inactive
6,Cc1cc(C)n(-c2ccc(C(=O)Nc3cccc(S(=O)(=O)N(C)C)c3)cc2)n1,inactive
7,Cc1ccc(C(=O)NNC(=O)CSc2nnc3ccccn23)cc1,inactive
8,COc1ccc(C(=O)NOCc2ccccc2)cc1,"inconclusive: 2.59 µM [activator, partial curve]"
9,COc1ccc(C2NC(=S)NC3=C2CCCC3=C2SCCS2)cc1 (stereo unspecified),"inconclusive: 23.1 µM [activator, single point]"
10,CCCSc1nc(N)c2c3c(sc2n1)CN(C)CC3,"inconclusive: 20.6 µM [activator, single point]"
11,CC(C)(C)NC(=O)CN(C(=O)c1ccc(CN2CCOCC2)o1)c1ccc2c(c1)OCCO2,inactive
12,CN(CCC1CCOCC1)C(=O)C1CCC(=O)N(CCc2ccccc2)C1 (stereo unspecified),inactive
13,Cc1cc(Cl)ccc1OCC(=O)NC1CCCC1,"inconclusive: 20.6 µM [activator, partial curve, poor fit]"
14,COc1ccc(C(=O)O/N=C(\N)c2ccc(OC)c(OC)c2)cc1,"inconclusive: 20.6 µM [activator, partial curve, poor fit]"
15,CN1CCN(NC(=O)c2cc(-c3ccc(Cl)s3)nc3ccccc23)CC1,"inconclusive: 20.6 µM [activator, single point]"
16,Cc1ccc(NC(=O)/C=C/c2ccco2)nc1,active: 4.11 µM
17,O=C(CSc1cccc2cccnc12)N/N=C/c1ccncc1,inactive
18,CC(=O)Nc1ccc(NC(=O)CCNC(=O)c2ccccc2Cl)cc1,inactive
19,COc1ccc(N(C(=O)c2cnccn2)C(C(=O)NC2CCCCC2)c2ccc(O)cc2)cc1 (stereo unspecified),inactive
20,COCC(C)NC(=O)C1CC(=O)N(c2ccc(C)cc2)C1 (stereo unspecified),inactive
21,O=C(Nc1ccc2c(c1)OCO2)N1CCN(c2ccccc2Cl)CC1,"inconclusive: 18.4 µM [activator, partial curve]"
22,O=C(NCCN1CCCCC1)Nc1cccc(C(F)(F)F)c1,"inconclusive: 23.1 µM [activator, partial curve, poor fit]"
23,CC1(c2ccc3ccccc3c2)NC(=O)N(CC(=O)N2CCN(c3ccccc3O)CC2)C1=O (stereo unspecified),inactive
24,CN(C)S(=O)(=O)c1cccc(NC(=O)COC(=O)c2cc3ccccc3oc2=O)c1,active: 9.2 µM
25,O=Cc1ccc(N2CCCC2)c([N+](=O)[O-])c1,inactive
26,COCCCC1CCN(C(=O)C2CCC(=O)N(C3CCCC3)C2)CC1 (stereo unspecified),inactive

row,Structure (SMILES),Potency
1,COC(=O)c1c(NC(=O)COC(=O)CCc2ccc(S(=O)(=O)N3CCOCC3)cc2)sc2c1CCC2,"inconclusive: 20.6 µM [activator, partial curve, poor fit]"
2,O=c1cc(-c2ccccc2)[nH]n1-c1nc2ccccc2[nH]1,"inconclusive: 18.4 µM [activator, single point]"
3,NNC(=O)c1ccccc1OCc1ccccc1,inactive
4,Cc1ccc(N/C(=C\C(=O)c2ccccc2)C(=O)O)cc1,"inconclusive: 18.3 µM [activator, partial curve]"
5,COc1ccccc1-c1nn2c(-c3ccco3)nnc2s1,active: 18.4 µM
6,Cc1cc(C(=O)Nc2ccc([N+](=O)[O-])cn2)cs1,active: 9.2 µM
7,O=C(Nc1ccc(Cl)c(Cl)c1)N1CCCCCC1,"inconclusive: 5.8 µM [activator, full curve]"
8,O=C(CSc1nc2c(sc3ccccc32)c(=O)n1Cc1ccccc1)NCC1CCCO1 (stereo unspecified),"inconclusive: 23.1 µM [activator, partial curve, poor fit]"
9,Fc1ccc(N2Cc3ccsc3C=N2)cc1,inactive
10,Cc1nnc(NC(=O)c2csc3c2CCCC3)s1,"inconclusive: 20.6 µM [activator, partial curve, poor fit]"
11,CC(=O)Nc1cc2c(=O)n(Cc3ccccc3)c(C)nc2cc1N1CCOCC1,"inconclusive: 23.1 µM [activator, partial curve, poor fit]"
12,CCOC(=O)N1CCC(NC(=O)c2cc3c(C)nc4ccccc4c3o2)CC1,inactive
13,Brc1ccc(-c2ncc3ccccn23)cc1,"inconclusive: 14.6 µM [activator, partial curve, poor fit]"
14,COc1c(O)cc2oc(-c3ccc(O)c(O)c3)cc(=O)c2c1O,active: 20.6 µM
15,CCOC(=O)C1(Cc2ccccc2)CCCN(C(=O)c2cnn(CC)c2)C1 (stereo unspecified),"inconclusive: 20.6 µM [activator, single point]"
16,COC(=O)c1c(-c2ccccc2)csc1NC(=O)c1c(-c2ccccc2)noc1C,inactive
17,CN=Cc1sc2ccccc2c1O,inactive
18,O=C(c1ccc(Cl)cc1)c1cnc(Nc2ccccc2)s1,"inconclusive: 23.1 µM [activator, partial curve]"
19,Nc1ncnc2nc(SCC(=O)Nc3ccccc3F)[nH]c12,inactive
20,O=C(O)COn1c(-c2ccccc2)nc2ccc(Cl)cc21,"inconclusive: 20.6 µM [activator, partial curve, poor fit]"
21,CCOc1ccc(-c2nc(-c3ccccc3)no2)cc1OCC,"inconclusive: 16.4 µM [activator, partial curve]"
22,Cc1ccc(S(=O)(=O)Nc2cc3c4c(c2)CCN4C(=O)CC3)cc1,active: 10.3 µM
23,COc1cccc(-c2noc(Cn3nc(C(=O)O)c4ccccc4c3=O)n2)c1,"inconclusive: 14.6 µM [activator, partial curve, poor fit]"
24,COc1ccc(CCn2c(C(C)C)nc3oc4ccccc4c(=O)c3c2=O)cc1,inactive
25,COc1ccc(C(=O)NC2=NCCS2)cc1,"inconclusive: 10.3 µM [activator, partial curve]"
